From publication PMC4336329 (PLoS ONE, 2015)
Out of some 310,000 compounds screened, about 2,200 (0.71%) showed an effect of 50% or more. The effect is printed as a negative number. This is one part of the list.

target: human ether-à-go-go-related gene (hERG) potassium channel (human, UniProt Q12809); test: primary screen, population patch clamp on CHO cells stably expressing hERG
Sequence (Q12809 whole entry, looked up): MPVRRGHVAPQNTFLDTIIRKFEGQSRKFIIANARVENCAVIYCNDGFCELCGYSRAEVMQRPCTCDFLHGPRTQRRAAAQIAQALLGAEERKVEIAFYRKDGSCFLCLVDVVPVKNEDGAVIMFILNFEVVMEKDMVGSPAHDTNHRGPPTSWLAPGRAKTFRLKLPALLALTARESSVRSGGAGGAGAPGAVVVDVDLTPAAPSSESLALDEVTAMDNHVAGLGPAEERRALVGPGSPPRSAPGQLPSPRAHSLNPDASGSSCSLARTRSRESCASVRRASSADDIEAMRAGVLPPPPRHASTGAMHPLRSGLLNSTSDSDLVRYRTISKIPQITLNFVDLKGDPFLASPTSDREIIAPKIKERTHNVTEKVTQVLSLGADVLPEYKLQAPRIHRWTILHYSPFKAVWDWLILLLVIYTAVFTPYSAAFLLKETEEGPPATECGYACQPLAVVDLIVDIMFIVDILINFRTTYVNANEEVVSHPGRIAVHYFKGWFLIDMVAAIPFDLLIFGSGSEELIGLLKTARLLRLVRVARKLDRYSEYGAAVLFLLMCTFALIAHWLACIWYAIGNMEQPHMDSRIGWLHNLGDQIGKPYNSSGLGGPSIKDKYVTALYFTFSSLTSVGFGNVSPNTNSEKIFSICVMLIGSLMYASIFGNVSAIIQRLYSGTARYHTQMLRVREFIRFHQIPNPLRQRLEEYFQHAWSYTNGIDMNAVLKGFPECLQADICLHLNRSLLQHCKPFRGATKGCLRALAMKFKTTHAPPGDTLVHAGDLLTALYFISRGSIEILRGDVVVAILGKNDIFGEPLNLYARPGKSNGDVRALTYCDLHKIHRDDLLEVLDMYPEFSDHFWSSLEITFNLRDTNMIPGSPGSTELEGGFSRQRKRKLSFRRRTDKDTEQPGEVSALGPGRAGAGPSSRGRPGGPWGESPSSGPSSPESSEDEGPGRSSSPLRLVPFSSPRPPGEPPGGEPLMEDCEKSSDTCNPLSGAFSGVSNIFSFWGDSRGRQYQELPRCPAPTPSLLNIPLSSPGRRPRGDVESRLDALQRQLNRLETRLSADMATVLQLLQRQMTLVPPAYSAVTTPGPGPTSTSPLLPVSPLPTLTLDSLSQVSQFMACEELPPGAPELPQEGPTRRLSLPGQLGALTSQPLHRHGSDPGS

Compound	hERG current change (%, negative = inhibition) at 1uM [%]
COc1cc(NC(=O)NCCN2CCN(c3ccc(Cl)cc3)CC2)ccc1C	7.99
Cn1nnnc1-c1cc(Br)ccc1NC(=O)c1ccccc1	9.15
COc1ccc(-n2nc3c(c2NC(=O)c2c(-c4ccccc4Cl)noc2C)CS(=O)(=O)C3)cc1	-11.7
O=S(=O)(NCCC1=CCCCC1)c1cccc(S(=O)(=O)N2CCOCC2)c1	11.3
N#CCCn1cc(C(=O)Nc2cccc(C(=O)O)c2)c(-c2ccc(Cl)cc2)n1	13.5
Cc1ccc(C)c2nc3sc(C(=O)O)cc3cc12	15.7
CC(C)=CCN1CCN(Cc2cc(F)ccc2-n2nc(C)cc2C)CC1CCO (centres unmarked)	0.35
CSCC[C@@H](C(=O)NCCCCCCCCCCC(=O)N1CCNCC1)n1cc(CCO)nn1	13.9
Cc1ccc(NC(=O)C2CC(O)CN2C(=O)Oc2ccccc2)c(C)c1 (centres unmarked)	11.5
Cc1ccc(-c2nnc(SCC(=O)N3CCN(c4ccccc4)CC3)o2)cc1	11.1
COc1cccc(/C=N/Nc2ncnc(Cl)c2N)c1O	5.19
CCCCC(=O)NCCc1cc2ccc(OC)cc2[nH]c1=O	9.42
Cl.O=C(c1ccc(F)cc1)C(CN1CCOCC1)c1ccccc1 (centres unmarked)	1.11
CCOc1ncccc1C(=O)N1CCCSC1=Nc1ccccc1OC	9.7
COc1ccc(C(CNC(=O)c2cc3c(s2)CCC(C)C3)N2CCOCC2)cc1 (centres unmarked)	-3.82
CCOc1ccc(CN(C)C(=O)c2cc(S(=O)(=O)N3CCCC3)ccc2C)cc1	-11.1
O=C(Nc1ccccc1)c1sc2cc(C(F)(F)F)cnc2c1-c1cccs1	3.99
Cc1ccc(-c2cc(-c3cccc(F)c3)n[nH]2)c(O)c1	12.2
CN(CC(=O)Nc1cccc(F)c1)C(=O)CC1CC2CCC1C2 (centres unmarked)	4.5
Cn1cc(/C=C(\C(=O)O)C(C(=O)O)=C2CCCCC2)c2ccccc21	8.36
C=C(C)CNC(=S)N/N=C/c1ccc([N+](=O)[O-])cc1	8.58
O=C(/C=C/Nc1ccc(S(=O)(=O)Nc2cnc3ccccc3n2)cc1)c1ccccc1	4.15
CCOC(=O)CSC1=C(C#N)C(=O)NC(c2ccc(OC)c(OC)c2)S1 (centres unmarked)	13.9

Compound	hERG current change (%, negative = inhibition) at 1uM [%]
COC(=O)c1n[nH]n(-c2ccc(F)c(Cl)c2)c1=O	11.5
CCCCn1c2nc3ccccc3nc2c2c(=O)n(-c3ccccc3)cnc21	2.17
O=C(NCCN1CCN(Cc2ccc([N+](=O)[O-])cc2)CC1)C(=O)Nc1ccccc1	-53.8
COc1ccc(OCc2nc(N)nc(Nc3cccc(C)c3C)n2)cc1	13.9
Cc1onc(-c2ccccc2)c1C(=O)Nc1cccc(C#N)c1	4.13
COc1ccc(CCNC(=O)COc2coc(CN3c4ccccc4CC3C)cc2=O)cc1OC (centres unmarked)	14.4
Cc1ccc(S(=O)(=O)N2C(=O)c3cccc4cccc2c34)cc1	13.5
CC(Oc1cccc2cccnc12)C(=O)N/N=C/c1ccccc1 (centres unmarked)	6.71
O=C(Nc1ccc(N2CCCCC2)cc1)C(Cl)c1ccccc1 (centres unmarked)	11.4
CCn1cc(Br)c(C(=O)NN)n1	14.2
Cc1ccc(N2CC(C(=O)OCC(=O)c3ccc(F)cc3)CC2=O)cc1 (centres unmarked)	13.8
COc1ccc(NC(=O)CCCC(=O)c2ccccc2)c(OC)c1	10.7
COc1ccc(/C=N/n2cc(-c3ccc(OC)cc3)nc2N)cc1	-3.68
CN(CCCC1CCCC1)C(=O)CCc1nnc(-c2ccccc2)o1	12.6
CN(C(=O)c1ccncc1)C1CCS(=O)(=O)C1 (centres unmarked)	1.86
C[C@]12CC[C@H](OS(=O)(=O)[O-])CC1=CC[C@@H]1[C@@H]2CC[C@]2(C)C(=O)CC[C@@H]12.O.[Na+]	17
Cn1c(SCC(=O)c2cc(Cl)c(Cl)s2)nnc1-c1ccco1	-0.787
CC(=O)N1CC=CC1(CC(C)C)C(=O)NCCc1c[nH]c2ccccc12 (centres unmarked)	7.65
COC(=O)c1nnn(-c2nonc2N)c1CSc1nnc(N)s1	15.3
Cc1ccc(NS(=O)(=O)c2ccc(-c3cnc(C4CC4)o3)cc2)c(C)c1	4.7
Cc1nc([N+](=O)[O-])c(SCC(N)=O)n1Cc1ccccc1	13.2
COc1ccc(-c2c(C)oc3cc(O)cc(O)c3c2=O)cc1OC	1.63
O=C(c1ccc(NC(=S)NCc2ccc(Cl)cc2)cc1)N1CCCCC1	3.84

Compound	hERG current change (%, negative = inhibition) at 1uM [%]
Cn1nc(Oc2ncc(C(F)(F)F)cc2Cl)cc1C(F)(F)F	4.88
COc1ccc(CCC(=O)NNC(=O)Nc2cc(Cl)ccc2C)cc1	4.07
O=C1N(c2ccccc2C(F)(F)F)O[C@]1(c1ccccc1)C1CCCCC1	-6.55
CCCn1nc(CC(=O)O)c2ccccc2c1=O	3.22
Cc1ccccc1CSc1nnc(-c2cccs2)n1Cc1ccco1	6.88
COc1ccccc1NS(=O)(=O)c1cccc(C(=O)N/N=C2\CC(=O)CC(C)(C)C2)c1	-3.42
CC(C)CNC(=S)NNC(=O)c1csc2c1CCCC2	2.91
Cc1ccc(S(=O)(=O)N2CC3CC(C2)c2cccc(=O)n2C3)cc1 (centres unmarked)	-6.88
CN(C)S(=O)(=O)c1cccc(COC(=O)c2ccc(Cl)cc2O)c1	10.5
C=C(C)CC1Nc2ccccc2NC1CC(=C)C (centres unmarked)	11.7
Cc1nc2ccc(NC(=O)c3ccc(Cl)nc3)cc2s1	-0.369
CCCCc1nc2ccc(S(=O)(=O)O)cc2[nH]1	1.3
C/C(=C\c1ccccc1F)C1Nc2cccc3cccc(c23)N1	19.8
Cc1cc([N+](=O)[O-])ccc1-c1ccc(/C=N/NC(=O)Cc2ccccc2)o1	4.48
COc1ccc(/C=C2\SC(=S)N(C(C(=O)O)c3ccccc3)C2=O)c(OC)c1 (centres unmarked)	11.7
CN1CCN(C(CNC(=O)C(=O)NC2CCCCC2)c2ccc(F)cc2)CC1 (centres unmarked)	3.69
Cc1ccc2ccccc2[n+]1CCCS(=O)(=O)[O-]	14.9
O=C(NC1CCCCC1)N(Cc1cc2cc3c(cc2[nH]c1=O)OCCO3)CC1CCCO1 (centres unmarked)	1.55
Cc1cccc2cc(CNC3CCCC3)c(Cl)nc12	10.3
CN1C2CCC1CC(=NO)C2	8.07
COc1cc(/C=N/NC(=O)c2ccoc2C)ccc1OCCN1CCCCC1	3.72
Cc1nnc(SCC2=C(C(=O)O)N3C(=O)C(NC(=O)c4cccc(F)c4F)C3SC2)s1 (centres unmarked)	11.7
CSc1ncccc1C(=O)OCC(=O)NC1CCCCC1	2.84

Compound	hERG current change (%, negative = inhibition) at 1uM [%]
O=S(=O)(Nc1ccc2c3c(cccc13)CC2)c1ccc(F)cc1	-1.87
Cc1c(C(=O)NCc2ccccn2)oc2ccc(S(=O)(=O)N3CCOCC3)cc12	7.58
Cc1ccc(-n2[nH]c(C)c(CCC#N)c2=O)cc1	2.81
N/C(=N\OC(=O)c1ccccc1)c1cccnc1	20.7
CC(=O)c1c(C)[nH]c(C(=O)N2CCc3ccccc32)c1C	10.9
COc1ccccc1OCc1nnc(SCC(=O)Nc2nnc(C3CC3)s2)n1C	15.6
Cl.O=C(NCCN1CCOCC1)c1cc2ccccc2o1	7.43
O=[N+]([O-])c1ccc(S(=O)(=O)Nc2ccc(-c3csc(-c4ccccc4)n3)cc2)cc1	14.4
CC1CCCC(NC(=O)c2cccc(S(=O)(=O)NCc3ccccc3)c2)C1C (centres unmarked)	2.99
Cc1ccc(-n2nnnc2CNC(=O)c2ccc3c(c2)OCO3)cc1C	7.46
O=C(Nc1ccc2c(c1)OCO2)C1CC(c2cccc(Br)c2)=NO1 (centres unmarked)	3.89
Cn1c(CSCc2ccccc2)nnc1SCC(=O)Nc1ccc(C(=O)O)cc1	5.37
CCOc1ccc(NC(=O)COc2ccccc2C(=O)NCc2ccccc2)cc1	4.09
CC(C)CN1C(=O)/C(=C(/C#N)C(=O)NC2CCCCC2)c2ccccc21	5.21
Cc1ccccc1OCC(=O)Nc1ccc2[nH]ncc2c1	9.13
CN1C(=O)c2ccc(C(=O)NCc3ccc4c(c3)OCO4)cc2C1=O	5.56
CCOc1ccc(CCNC(=O)C2CC(C)=CCC2C(=O)O)cc1OCC (centres unmarked)	20.8
COc1ccc(C(C(=O)NCC2CCCO2)N(C(=O)Cn2nnc3ccccc32)c2ccc(NC(C)=O)cc2)cc1OC (centres unmarked)	17.4
Cc1cc(C)c(S(=O)(=O)N2CCCC(C(=O)N3CCOCC3)C2)c(C)c1 (centres unmarked)	13.1
CCOC(=O)Cc1cc(=O)n2[nH]cc(-c3cccc(Br)c3)c2n1	23.7
